# From the supplement of paper PMC4967469
# How the values were obtained:
# Assay in all cases: Viability of human cancer cell lines after 72 h of drug (GDSC screen)
# [1] = compound: COc1cc(C(=O)NC2CCN(C)CC2)ccc1Nc1ncc2c(n1)N(C1CCCC1)C(C)CC(=O)N2C [NPK76-II-72-1]; conditions: top dose 10.24 µM; top dose inferred
# Procedure: (§1)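 Human cancer cell lines in 384-well plates, medium with 10% serum, drug for 72 h over a 256-fold dose range (nine 2-fold or five 4-fold steps up to the top dose). Adherent lines were fixed and stained with the nucleic acid dye Syto60, suspension lines read with resazurin; signal relative to control wells, capped at 0 and 100%. One two-parameter sigmoid per drug and line, fitted in a mixed model over all curves with the slope shared within a line.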
# [2] = compound: COc1ccc(C(=O)CC2(O)C(=O)Nc3c(Cl)ccc(Cl)c32)cc1 [YK 4-279]; conditions: top dose 10 µM
# Procedure: as §1
# [3] = compound: Cc1ccc2nc(NCCN)c3ncc(C)n3c2c1 [BMS-345541]; conditions: top dose 16 µM
# Procedure: as §1
# [4] = compound: O=C(O)c1ccc(-c2c[nH]c3ncc(-c4ccccc4)cc23)cc1C1CCCC1 [GSK-650394]; conditions: top dose 16 µM; top dose inferred
# Procedure: as §1
# [5] = compound: Oc1nc(-c2ccc(C(F)(F)F)cc2)nc2c1CSCC2 [XAV 939]; conditions: top dose 5 µM; top dose inferred
# Procedure: as §1
# [6] = compound: C=C(c1ccc(C(=O)O)cc1)c1cc2c(cc1C)C(C)(C)CCC2(C)C [Bexarotene]; conditions: top dose 8 µM
# Procedure: as §1
cell line,measurement,setting,value
"A172 (glioma, adherent)",AUC,[1],0.895
same,IC50,[1],> 10.2 µM
same,AUC,[2],0.731
same,IC50,[2],2.75 µM
same,AUC,[3],0.916
same,IC50,[3],> 16 µM
same,AUC,[4],0.869
same,IC50,[4],13.8 µM
same,AUC,[5],0.956
same,IC50,[5],> 5 µM
"A375 (melanoma, adherent)",AUC,[6],0.861
same,IC50,[6],4.89 µM
same,AUC,[1],0.891
same,IC50,[1],8.21 µM
same,AUC,[2],0.599
same,IC50,[2],1.11 µM
same,AUC,[3],0.895
same,IC50,[3],13.3 µM
same,AUC,[4],0.76
same,IC50,[4],4.74 µM
same,AUC,[5],0.976
same,IC50,[5],> 5 µM
"COLO-792 (melanoma, adherent)",AUC,[6],0.988
same,IC50,[6],> 8 µM
same,AUC,[1],0.987
same,IC50,[1],> 10.2 µM
same,AUC,[2],0.672
same,IC50,[2],1.86 µM
same,AUC,[3],0.879
same,IC50,[3],15.9 µM
same,AUC,[4],0.907
same,IC50,[4],> 16 µM
same,AUC,[5],0.956
same,IC50,[5],> 5 µM
"HCC1806 (breast, adherent)",AUC,[6],0.965
same,IC50,[6],> 8 µM
same,AUC,[1],0.658
same,IC50,[1],1.69 µM
same,AUC,[2],0.666
same,IC50,[2],1.73 µM
same,AUC,[3],0.887
same,IC50,[3],15.4 µM
same,AUC,[4],0.969
same,IC50,[4],> 16 µM
same,AUC,[5],0.987
same,IC50,[5],> 5 µM
"HT-29 (large intestine, adherent)",AUC,[6],0.948
same,IC50,[6],> 8 µM
same,AUC,[1],0.7
same,IC50,[1],2.34 µM
same,AUC,[2],0.669
same,IC50,[2],1.85 µM
same,AUC,[3],0.877
same,IC50,[3],> 16 µM
same,AUC,[4],0.781
same,IC50,[4],6.63 µM
"J82 (bladder, adherent)",AUC,[6],0.89
same,IC50,[6],> 8 µM
same,AUC,[1],0.983
same,IC50,[1],> 10.2 µM
same,AUC,[2],0.794
same,IC50,[2],4.58 µM
same,AUC,[3],0.919
same,IC50,[3],> 16 µM
same,AUC,[4],0.73
same,IC50,[4],4.49 µM
same,AUC,[5],0.969
same,IC50,[5],> 5 µM
"KG-1 (acute myeloid leukaemia, suspension)",AUC,[6],0.988
same,IC50,[6],> 8 µM
same,AUC,[1],0.52
same,IC50,[1],0.721 µM
same,AUC,[2],0.638
same,IC50,[2],1.44 µM
same,AUC,[3],0.886
same,IC50,[3],14.4 µM
same,AUC,[4],0.853
same,IC50,[4],10.5 µM
same,AUC,[5],0.981
same,IC50,[5],> 5 µM
"LOXIMVI (melanoma, semi-adherent)",AUC,[6],0.981
same,IC50,[6],> 8 µM
same,AUC,[1],0.896
same,IC50,[1],> 10.2 µM
same,AUC,[2],0.722
same,IC50,[2],2.44 µM
same,AUC,[3],0.901
same,IC50,[3],> 16 µM
same,AUC,[4],0.99
same,IC50,[4],> 16 µM
same,AUC,[5],0.976
same,IC50,[5],> 5 µM
"NCI-H522 (lung adenocarcinoma, adherent)",AUC,[6],0.916
same,IC50,[6],> 8 µM
same,AUC,[1],0.717
same,IC50,[1],2.99 µM
same,AUC,[2],0.811
same,IC50,[2],6.54 µM
same,AUC,[3],0.785
same,IC50,[3],8.27 µM
same,AUC,[4],0.778
same,IC50,[4],7.72 µM
same,AUC,[5],0.967
same,IC50,[5],> 5 µM
"NCI-H1299 (large cell lung carcinoma, adherent)",AUC,[6],0.93
same,IC50,[6],> 8 µM
same,AUC,[1],0.941
same,IC50,[1],> 10.2 µM
same,AUC,[2],0.697
same,IC50,[2],2.56 µM
same,AUC,[3],0.93
same,IC50,[3],> 16 µM
same,AUC,[4],0.751
same,IC50,[4],6.37 µM
same,AUC,[5],0.88
same,IC50,[5],> 5 µM
"NCI-H1573 (lung adenocarcinoma, adherent)",AUC,[6],0.987
same,IC50,[6],> 8 µM
same,AUC,[1],0.961
same,IC50,[1],> 10.2 µM
same,AUC,[2],0.896
same,IC50,[2],> 10 µM
same,AUC,[3],0.921
same,IC50,[3],> 16 µM
same,AUC,[4],0.971
same,IC50,[4],> 16 µM
same,AUC,[5],0.99
same,IC50,[5],> 5 µM
"NCI-H1793 (lung adenocarcinoma, adherent)",AUC,[6],0.951
same,IC50,[6],> 8 µM
same,AUC,[1],0.973
same,IC50,[1],> 10.2 µM
same,AUC,[2],0.897
same,IC50,[2],> 10 µM
same,AUC,[3],0.962
same,IC50,[3],> 16 µM
same,AUC,[4],0.98
same,IC50,[4],> 16 µM
same,AUC,[5],0.951
same,IC50,[5],> 5 µM
"NCI-H2030 (lung adenocarcinoma, adherent)",AUC,[6],0.918
same,IC50,[6],> 8 µM
same,AUC,[1],0.821
same,IC50,[1],7.07 µM
same,AUC,[2],0.804
same,IC50,[2],5.83 µM
same,AUC,[3],0.833
same,IC50,[3],12.4 µM
same,AUC,[4],0.778
same,IC50,[4],7.45 µM
same,AUC,[5],0.912
same,IC50,[5],> 5 µM
"NCI-H2066 (small cell lung carcinoma, adherent)",AUC,[2],0.867
same,IC50,[2],> 10 µM
same,AUC,[5],0.958
same,IC50,[5],> 5 µM
"NCI-H2228 (lung adenocarcinoma, adherent)",AUC,[6],0.829
same,IC50,[6],> 8 µM
same,AUC,[1],0.904
same,IC50,[1],> 10.2 µM
same,AUC,[2],0.809
same,IC50,[2],8.99 µM
same,AUC,[3],0.891
same,IC50,[3],> 16 µM
same,AUC,[4],0.624
same,IC50,[4],2.62 µM
"PC-3 (prostate, adherent)",AUC,[6],0.93
same,IC50,[6],> 8 µM
same,AUC,[1],0.849
same,IC50,[1],> 10.2 µM
same,AUC,[2],0.85
same,IC50,[2],> 10 µM
same,AUC,[3],0.899
same,IC50,[3],> 16 µM
same,AUC,[4],0.98
same,IC50,[4],> 16 µM
same,AUC,[5],0.955
same,IC50,[5],> 5 µM
"RS4-11 (leukaemia, suspension)",AUC,[6],0.955
same,IC50,[6],> 8 µM
same,AUC,[1],0.705
same,IC50,[1],2.28 µM
same,AUC,[2],0.846
same,IC50,[2],6.38 µM
same,AUC,[3],0.841
same,IC50,[3],9.81 µM
same,AUC,[4],0.749
same,IC50,[4],4.8 µM
same,AUC,[5],0.971
same,IC50,[5],> 5 µM
"SKM-1 (haematopoietic neoplasm, suspension)",AUC,[2],0.738
same,IC50,[2],3.26 µM
same,AUC,[5],0.982
same,IC50,[5],> 5 µM
"SNU-1040 (large intestine, adherent)",AUC,[1],0.857
same,IC50,[1],> 10.2 µM
same,AUC,[2],0.904
same,IC50,[2],> 10 µM
same,AUC,[3],0.826
same,IC50,[3],14.5 µM
same,AUC,[5],0.965
same,IC50,[5],> 5 µM
"SU-DHL-10 (B-cell lymphoma, suspension)",AUC,[1],0.601
same,IC50,[1],1.12 µM
same,AUC,[2],0.981
same,IC50,[2],> 10 µM
same,AUC,[3],0.625
same,IC50,[3],2 µM
same,AUC,[5],0.997
same,IC50,[5],> 5 µM
"SW1116 (large intestine, adherent)",AUC,[1],0.978
same,IC50,[1],> 10.2 µM
same,AUC,[2],0.939
same,IC50,[2],> 10 µM
same,AUC,[3],0.985
same,IC50,[3],> 16 µM
same,AUC,[5],0.982
same,IC50,[5],> 5 µM

# The IC50 comes from the fitted curve, where viability falls to half of the control; where the fit passes the top or lowest dose, that dose stands as a limit. The AUC spans the tested range (256-fold, ending at the top dose) of the same fit; it is 1 without any effect and falls as sensitivity rises. For some assays here: A top dose marked as inferred was calculated from the reported fits.
